About 800 (1.6%) of roughly 50,000 compounds showed an effect of 50% or more. This is one part of the list.

Displacement data for 110 compounds are collected here from PubChem BioAssay AID1240 (Sanford-Burnham Center for Chemical Genomics, 2008).

This assay concerns the target Bcl-2-like protein 10 (Homo sapiens) (UniProt Q9HD36). Nature of the assay: TR3 peptide-Bcl-B binding displacers, biochemical primary FP assay, phenotype converters (AID 1240).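 Note: 0% = Bcl-B with tracer peptide and DMSO and 100% = tracer peptide lacking Bcl-B.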 To be noted: GST-Bcl-B / FITC-TR3 peptide fluorescence polarization; stronger effect = higher value; compound at 3.75 mg/L. (In general: Fluorescence polarisation rises when a labelled molecule tumbles more slowly, as on binding a larger partner.)
Chain of UniProt Q9HD36 (Q9HD36 whole entry, looked up): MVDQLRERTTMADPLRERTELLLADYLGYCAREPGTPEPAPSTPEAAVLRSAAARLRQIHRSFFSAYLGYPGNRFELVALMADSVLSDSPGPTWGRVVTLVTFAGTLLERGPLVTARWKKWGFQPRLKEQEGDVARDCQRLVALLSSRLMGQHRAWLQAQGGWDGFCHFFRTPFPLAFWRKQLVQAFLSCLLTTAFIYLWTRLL
For the compound `CC1(C)CC(=O)C2=C(C1)Nc1ccccc1N(C(=O)Cc1ccccc1)C2c1cccc(F)c1` (stereo not given), the displacement is -7.7%. Consider `COc1ccc(OC)c(C2NC(=O)NC3=Nc4ccccc4NC(c4ccccc4)=C32)c1` (stereo not given), for which the displacement was 12.3%. As for `COc1ccc(NC(=O)C2CC(C)=C(C)CC2C(=O)O)cc1` (stereo not given), the displacement was -1.1%.

As to `O=C(Nc1ccc(Cl)cc1)c1ccc([N+](=O)[O-])cc1`, the displacement amounted to 1.9%. With `Cc1ccc2c(C)[n+](C)ccn12`, the displacement is 5.3%.

With `O=[N+]([O-])c1ccc(S(=O)N(c2ccccn2)C2CCCCC2)cc1` (stereo not given), the displacement was -7.2%. As for `Cc1cccc(NC(=O)CSc2nsc(SCC(=O)Nc3cccc(C)c3)n2)c1`, the displacement was 15.1%.

Consider `O=C(CCc1ccccc1)Nc1cc(Cl)cc(Cl)c1`, for which the displacement was determined as 3.5%. With `NC(=O)c1ccccc1N=Cc1ccc(Cl)c([N+](=O)[O-])c1`, the displacement came to 1%. The value for `O=[N+]([O-])c1ccc(Cc2ccncc2)cc1` was 10%; that for `CN1C(=O)/C(=C\c2ccccc2OCc2ccc(Cl)cc2)SC1=S` was 2.3%. The value for `COCCNC(=O)CN(c1ccc(OC)cc1OC)S(C)(=O)=O` was 0%; that for `COc1cc(C=NCC2(c3ccccc3)CCCC2)ccc1OC(C)=O` was -1%. Take `CC(C)CN1C(=O)c2ccc(C(=O)Nc3nccs3)cc2C1=O`: the displacement is -11.9%. For the compound `C=CCOc1ccc(/C=C/C(=O)c2ccc(Cl)cc2)cc1OC`, the displacement was -1.3%. The same measure for `COc1cc(OC)c(C(=O)N2CC(=O)Nc3ccccc32)c(OC)c1`: 4.9%; for `CCN(CC)C(=O)CSc1nsc(SCC(=O)N(CC)CC)n1`: 1.8%.

Take `Cc1ccc(NC(=O)CCC(=O)NCCO)cc1`: the displacement is -5%. For the compound `O=C(Nc1ccccc1[N+](=O)[O-])c1ccc(-c2ccccc2)cc1`, the displacement turned out to be 13.6%. Take `CN(C)c1ccc(NC(=O)COc2ccc(Cl)cc2Br)cc1`: the displacement was -12.1%. For the compound `CCn1c(SCC(=O)c2ccc(Cl)cc2)nc2sc3c(c2c1=O)CCCC3`, the displacement came to 15.7%. Regarding `CCCC(=O)NC(c1ccc(C)cc1)c1c(O)ccc2ccccc12` (stereo not given), the displacement is -0.3%.

Turning to `Cc1c(-c2ccc(Cl)cc2)nc2ccccc2c1C(=O)O`, the displacement was -6.5%. Regarding `O=C(NCCN1CCOCC1)C(=O)NCc1ccc(Cl)cc1`, the displacement was determined as 2.3%.

As for `Cc1cc(NC(=O)c2cccc([N+](=O)[O-])c2C)ccc1Br`, the displacement was -3.3%. For the compound `Cn1c(=O)c([N+](=O)[O-])c(NCCO)c2ccccc21`, the displacement came to 6.6%. With `COc1ccc(C(=O)N2CCN(Cc3cccc(C)c3)CC2)cc1OC`, the displacement is -24.7%. Turning to `COc1ccc(NC(=O)COc2ccc(Cl)cc2Cl)cc1`, the displacement is -6.1%. For the compound `COc1ccc(NC(=O)Cn2nc(C)c3ccccc3c2=O)cc1`, the displacement was -4.1%. With `COc1cc(/C=N/NC(=O)c2cccnc2)ccc1OS(=O)(=O)c1ccc(F)cc1`, the displacement is -6.7%. As for `O=C(C1=C(O)C(=O)N(c2nncs2)C1c1ccc(Cl)cc1)c1cccs1` (stereo not given), the displacement was 125%. As for `CCOC(=O)c1c(NC(=O)/C=C/c2ccccc2)sc(C)c1C`, the displacement came to 9%.

As to `O=C(Nc1ccc(Cl)c(Cl)c1)c1cc2ccccc2o1`, the displacement was determined as 2.9%. For the compound `O=C1C2C3C=CC(C3)C2C(=O)N1c1ccc([N+](=O)[O-])cc1Br` (stereo not given), the displacement came out at 13.2%.

With `Cc1ccc(/C=N/N2CCN(Cc3cccc4ccccc34)CC2)s1`, the displacement is -7.8%.

As to `COc1cc(-c2nc3sc4c(c3c(=O)[nH]2)CCCC4)ccc1OS(=O)(=O)c1ccccc1`, the displacement is -8.5%. On to `COC(=O)C1=C(C(=O)OC)SC(=C2C(=S)C(C)(C)N(C(=O)C(F)(F)F)c3cc(C)ccc32)S1`, for which the displacement turned out to be 10.6%. The value for `CN1C(=S)N(c2ccccc2)C(C)(O)CC1(C)C` (stereo not given) was 13.1%; that for `O=C(O)C1CCCCC1C(=O)NCCc1ccc(F)cc1` (stereo not given) was -2.3%; that for `CSCCC(NC(=O)c1cc(C(C)(C)C)oc1C)C(=O)O` (stereo not given) was 6.4%. In the case of `O=C(Nc1ccc(I)cc1)c1ccc(S(=O)(=O)N2CCCC2)cc1`, the displacement was 19.5%. Turning to `C/C(=N\NC(=O)c1cc(-c2ccc3ccccc3c2)n[nH]1)c1cccc([N+](=O)[O-])c1`, the displacement was -8.8%. Regarding `Cc1ccc2occ(C(=O)c3ccccc3C)c(=O)c2c1`, the displacement is 14.4%. For the compound `CCOC(=O)c1ccc2nc(NC(=O)COC(=O)c3cc4ccccc4o3)sc2c1`, the displacement came out at 10.3%. Take `Cc1cc(C(=O)Nc2cccc3ccccc23)c(C)o1`: the displacement was 12.5%. `COc1ccc(C(=O)O/N=C2\CCCc3c2ccc(O)c3C)cc1OC`: the displacement was -8.3%. For the compound `COc1cccc(N(CC(=O)Nc2ccc(Br)cc2)S(=O)(=O)c2ccccc2)c1`, the displacement was -1.3%.

`CCOC(=O)/C(C#N)=C\c1ccc(-c2ccc(Cl)cc2)o1`: the displacement was -2.4%. The value for `CCC(C)C(C(=O)Nc1ccc(C(=O)OC)cc1)N1C(=O)c2ccccc2C1=O` (stereo not given) was 9.7%; that for `COC(=O)c1cc(C(=O)Nc2cc(C(F)(F)F)ccc2Cl)cc([N+](=O)[O-])c1` was -5.7%. Turning to `C=CCNC(=O)c1ccc(-c2cccc([N+](=O)[O-])c2)o1`, the displacement stood at 4.3%. Take `O=C(NCCCNc1ccc([N+](=O)[O-])cc1)c1ccc(Cl)cc1`: the displacement came out at 1.2%. The value for `O=C1CN(C(=O)c2ccc(Cl)c([N+](=O)[O-])c2)c2ccccc2N1` was 4.8%. As for `COc1cc(Br)cc(/C=C2\C(=O)NN(c3ccccc3)C2=O)c1O`, the displacement was determined as 0.3%. For `O=C1OC(c2cccc(Cl)c2)=N/C1=C\c1ccccc1[N+](=O)[O-]`, the displacement is 7%. For `CCC(C)c1c(O)nc(SCC(=O)Nc2nc3ccccc3s2)[nH]c1=O` (stereo not given), the displacement was -11.6%.

For `Nc1ccc(C2CC(=O)NC(=O)N2)cc1` (stereo not given), the displacement stood at 4.4%.

For `O=c1nc(/C=C/c2cccc3ccccc23)cc(C(F)(F)F)[nH]1`, the displacement was determined as 49.7%. On to `Nc1nnc(SCc2ccc([N+](=O)[O-])cc2)s1`, for which the displacement was 13%. Take `CC(Oc1ccccc1)C(=O)N1CCN(Cc2ccccc2)CC1` (stereo not given): the displacement worked out at 16.5%.

Consider `COc1ccc(C(=O)Nc2ccccc2)cc1NC(=O)c1ccc(Cl)c(Cl)c1`, for which the displacement is 0%. `CCOC(=O)/C(C#N)=C/c1[nH]c2ccccc2c1OC(C)=O`: the displacement was found to be 11.2%. Take `COC(CNS(=O)(=O)c1ccccc1)c1ccccc1` (stereo not given): the displacement turned out to be 10%. The value for `O=c1cc(-c2ccccc2)[nH]n1-c1ccccc1` was 13.6%; that for `C=C(C)COc1ccc2oc(-c3ccccc3)c(C(=O)O)c2c1` was 8.8%. As for `CCn1c(-c2ccccc2Br)n[nH]c1=S`, the displacement is -7.2%.

With `CCOc1ccccc1NC(=O)c1c(NC(=O)c2ccc(C)cc2)sc2c1CCC2`, the displacement was -8.4%. As to `Cn1c(=O)c2c(nc(Sc3nc4ccccc4o3)n2C)n(C)c1=O`, the displacement is 10.7%. Turning to `COc1ccc(-c2cc(C(=O)Nc3cccc(Cl)c3)c3ccccc3n2)cc1`, the displacement came to 3.9%. Consider `Cc1ccc(C(=O)Nc2sc(C)c(C)c2C(=O)OC(C)C)o1`, for which the displacement is -1.1%.

Regarding `O=C(Nc1ccc(Cl)c(Cl)c1)c1ccc(I)cc1`, the displacement came to 9.3%. The same measure for `COC(=O)C1=C(C)N(c2ccccc2)C(=S)NC1c1ccc(OC)cc1` (stereo not given): -13.4%; for `C/C(=N\NC(=O)c1cc(-c2ccco2)[nH]n1)c1ccc(O)cc1`: -16.7%; for `N#C/C(=C\Nc1ccccc1)c1nc(-c2ccccc2)cs1`: -4%. The same measure for `CC(=O)c1ccc(NC(=O)c2ccc(Cc3ccc(C)cc3)o2)cc1`: 11.1%; for `COc1ccc(/C=C2/C(=N)N3N=C(C(C)C)SC3=NC2=O)cc1OC`: 133%. Consider `Cc1ccccc1NC(=O)c1ccccc1NC(=O)C(O)(c1ccccc1)c1ccccc1`, for which the displacement is -14.3%. In the case of `Cc1ccc(CN=C(N)Nc2nc(C)cc(C)n2)cc1`, the displacement was -12%.

On to `CC(NC(=O)C(=O)Nc1cccc(C(F)(F)F)c1)c1ccccc1` (stereo not given), for which the displacement was determined as 10%. As for `CCOC(=O)C1=C(C)N=c2s/c(=C\c3ccc(N4CCOCC4)o3)c(=O)n2C1c1ccc(F)cc1` (stereo not given), the displacement was -27.1%.

Take `Cc1ccc(NC(=O)CCOc2ccccc2)c(C)c1`: the displacement was found to be 2.3%. For `CCOc1cc(/C=C2\C(=O)N(c3cccc(C(=O)O)c3)N=C2C)ccc1O`, the displacement came to 14.6%.

In the case of `CC1CCN(C(=O)c2ccccc2Cl)CC1`, the displacement is -0.9%. Take `CCN(CC)S(=O)(=O)c1ccc(NC(=O)c2ccccc2C)cc1`: the displacement was -7.5%. Consider `O=C(NN1C(=O)/C(=C/c2cccc3ccccc23)SC1=S)c1cccc(O)c1`, for which the displacement is -11.2%. The value for `CCN(CC)c1ccc(C2NC(=S)NC(C)=C2C(=O)Nc2ccccc2)cc1` (stereo not given) was 31.6%; that for `Cc1ccc(C)c(OCCCCN2CCCC2)c1` was 0.1%; that for `C=CCc1c(C)nc2cc(-c3ccc(C)cc3)[nH]n2c1=O` was 9.4%. In the case of `CCOc1ccc(N(CC(=O)Nc2cccc(Br)c2)S(C)(=O)=O)cc1`, the displacement was -7.6%. The same measure for `Cc1ccc(CNC(=O)c2ccc([N+](=O)[O-])cc2Cl)cc1`: 0.9%. In the case of `CCc1c(C)sc(NC(=O)c2ccc(F)cc2)c1C(=O)OC(C)C`, the displacement is -3.1%. For the compound `Cc1ccc(-n2nc3cc(C)c(NC(=O)c4cccc(C)c4)cc3n2)cc1`, the displacement came to 85.1%.

Turning to `CC1=C(C(=O)Nc2ccccc2C)C(c2ccc3c4c(cccc24)CC3)NC(=S)N1` (stereo not given), the displacement turned out to be 10.6%.

As for `CC(Oc1ccccc1)C(=O)Nc1cc(Cl)c(Cl)cc1Cl` (stereo not given), the displacement was determined as 16.3%. As to `O=c1oc2cc(OCc3ccc(Br)cc3)ccc2c2ccccc12`, the displacement was -3.8%. Take `CCOC(=O)C(C)Oc1ccc2c(C)c(CC)c(=O)oc2c1` (stereo not given): the displacement was -3.1%. As to `Cc1cc2c(Nc3c([N+](=O)[O-])ccc4c3=NC3(CCCCC3)N=4)cccc2nn1`, the displacement came to 23.3%. In the case of `Cc1cccc(NC(=O)c2ccccc2NC(=O)c2ccccc2)n1`, the displacement is -9.3%. The same measure for `CC1(C)Cc2c(sc(NC(=O)c3ccc(F)cc3)c2C#N)CO1`: 10%; for `O=C(Nc1nnc(COc2ccc(F)cc2)s1)c1cccc2ccccc12`: -10.6%; for `O=S(=O)(Nc1ccc(O)c(Cl)c1)c1cc(Cl)ccc1Cl`: 7.9%.

On to `COc1cc2c(cc1NS(=O)(=O)c1ccc([N+](=O)[O-])cc1)oc1ccccc12`, for which the displacement was -2.9%. Consider `Cc1ccc(S(=O)(=O)OCCOCCOS(=O)(=O)c2ccc(C)cc2)cc1`, for which the displacement was -5.3%.

In the case of `Cc1ccc(OCC(=O)NNC(=O)c2cc(Cl)ccc2O)c(C)c1`, the displacement is -16.7%. In the case of `COc1ccc(C2CC(=O)C3=C(C2)Nc2ccccc2NC3c2ccccc2Br)cc1` (stereo not given), the displacement is -1.7%. As to `O=C(CCCC(=O)Nc1cccc(Br)c1)N/N=C/c1cc([N+](=O)[O-])ccc1O`, the displacement was -21.6%. Consider `CCOC(=O)C1=C(c2ccccc2)N=c2s/c(=C\c3ccc(O)c(OC)c3)c(=O)n2C1c1ccccc1OC` (stereo not given), for which the displacement came out at 43.3%. As to `Cc1cc(/C=N/NC(N)=S)c(C)n1-c1cccc([N+](=O)[O-])c1`, the displacement was -17%.

Turning to `FC(F)C(F)(F)c1nc2ccccc2[nH]1`, the displacement amounted to 1.9%. In the case of `NC(=O)NC(c1ccccc1)c1ccccc1F` (stereo not given), the displacement turned out to be 7.7%.
